This passage reports binding signal results from PMC12136788.

The list shows a part of the results.

The chains are these.
T1: UNK ZnF1-3 (human, UniProt Q9C0B0 31-174)
T1 sequence: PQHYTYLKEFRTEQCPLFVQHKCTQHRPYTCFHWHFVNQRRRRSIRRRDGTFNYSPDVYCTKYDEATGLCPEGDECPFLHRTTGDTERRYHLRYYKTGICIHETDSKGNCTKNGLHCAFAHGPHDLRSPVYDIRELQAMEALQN

B1: chr14:35505469:35505470:+_ENSMUSG00000041408_ENSMUST00000048263|mus_mus|motif|central (ssRNA)
RNA: GGGAGUUCUACAGUCCGACGAUCCUGGAUGGUAACAUUACACACUGACAAGCAAGAUGGAUGUAAAACAGUGUAAUCUCGGGUCCGUCCAACUGUUCCUCGAAAACUGGUCCCACAACUUGCACUACCUUUCUUUGCCUGAUUCAACAGAGGAUUGAGCAUCA
B2: chr9:21333030:21333031:-_ENSG00000198642_ENST00000537938|hu_mus|FALSE|FALSE (ssRNA)
RNA: GGGAGUUCUACAGUCCGACGAUCAAGGGGAUGAACAAGACCACCCAUGAUACACUGAAAAGGUAUUACACCUUGGAUCUAAGAAUGAUCUGAAGGUGCUGAAAGAGGUGAUUCUCUAGAAGGUGACCCAGGGUUUUCUUCAGGCAACAGAGGAUUGAGCAUCA
B3: chr4:88366173:88366174:-_ENSMUSG00000070923_ENSMUST00000094993|mus_mus|FALSE|FALSE (ssRNA)
RNA: GGGAGUUCUACAGUCCGACGAUCUGGAAAAACUGUGAGAGUGCAAGCCCGAAUGCCACCCAGCGACUCAGGAAGAUCAAAAACUUUAUGCCACUCGUCUUUUUCUGGGUCAUAUUUCUGGACAAUUUCUACCAUGCACCGGUUCAACAGAGGAUUGAGCAUCA
B4: 134010568_134014158_378_CDS_ENSG00000166086_ENST00000529443|human|control|control (ssRNA)
RNA: GGGAGUUCUACAGUCCGACGAUCUUCUGCACGACCCGCCAAGUCUCCCUGAAUUUUGUUGUCAAAAAACACAUAUGUGGUUUGUUCAUCUUGAAUUUUCUUCCACUCGAUCCUGGGGUCACUUGUCUGCGAAUCCGUAAUGAUCAACAGAGGAUUGAGCAUCA
B5: chr4:148551591:148551592:-_ENSMUSG00000063077_ENSMUST00000060537|mus_hu|mus_mus_mus_hu_False|18_48 (ssRNA)
RNA: GGGAGUUCUACAGUCCGACGAUCACCUGACAAAAUUAAAUAUCCCUGUAAAUUAGACAAUAAGCAGCAGGCAACAAAGUCUUUGCUUUGAAAUAUGUGCCAGGAAAAGUCAUCUUGUAGACCCCAAUCAAGAGACAGUUCACACAACAGAGGAUUGAGCAUCA
B6: chr19:8913615:8913616:-_ENSMUSG00000071658_ENSMUST00000096259|mus_hu|mus_mus_mus_hu_False|28_78 (ssRNA)
RNA: GGGAGUUCUACAGUCCGACGAUCAGGGUACCAAAACCUUCUGCCUGAAAUGGGUGCCCCACCCUGCAGGGAGUUGCAGCUGAAAGUAUCUGAUGCAGAAGCAGUGAAUGCAGAGAAGGAGGCCCCUGGGGAGGGCCAGGCCAGCAACAGAGGAUUGAGCAUCA
B7: chr4:88367131:88367132:-_ENSMUSG00000070923_ENSMUST00000094993|mus_hu|FALSE|FALSE (ssRNA)
RNA: GGGAGUUCUACAGUCCGACGAUCUUGGUAAUUGCUAGCUUCCAAAAGCAAAUUCACGCAGGUAUUGUCUGUUCUCAUGAAAUCUACUGUCUGCACGUAAUUGAUGAGAUCCUGUGGUGUCAUCAGUGGAAAUCGAAUAUUCUUCAACAGAGGAUUGAGCAUCA
B8: chr10:75834556:75834557:+_ENSG00000035403_ENST00000372755|perfect_dup|motif|central (ssRNA)
RNA: GGGAGUUCUACAGUCCGACGAUCGUUAAUUUCAGCACUCAUCUUUUCUACAGUAAAAUUUCGAUUUUUCAAAGCUUCUUCGGUUCCUUGGUUUUUUGAGUUUUUGGUUGUAACAAAAAUCUUCAUAGCUGAAAUGAGAACAGGCAACAGAGGAUUGAGCAUCA
B9: chr12:39756943:39756944:-_ENSG00000139116_ENST00000544797|hu_mus|hu_hu_hu_mus_False|8_48 (ssRNA)
RNA: GGGAGUUCUACAGUCCGACGAUCGGUUUGGCUGUUACCCCCAAGGGAAUCCUGCAAGAGUCUUGUCAGCUUAGAGUCUCUGUAAGGGACAUGUGUGGCUCUCUUGCUCUUGUCCCCCAAGGCGCUGAUUACAUUGCCAAGAGCCAACAGAGGAUUGAGCAUCA
B10: chr1:149875238:149875239:-_ENSG00000159164_ENST00000369146|hu_hu|motif|central (ssRNA)
RNA: GGGAGUUCUACAGUCCGACGAUCUUUUGUUAUUUUCACUUUUUUCCUUUUAACAUUUUUUUAAACAUUUUACAAACAUCGGAAAACGGCAACACGUCACAGCUACAGUGGGGUGAGGGGAGGGCACCAAAGAAAGCAGCCACACAACAGAGGAUUGAGCAUCA
B11: 30634669_30638441_433_CDS_ENSG00000106105_ENST00000389266|human|control|control (ssRNA)
RNA: GGGAGUUCUACAGUCCGACGAUCAUCUUCUUUGAGUUUUCGCACAAGAUCUCCCUGCUGGCGCACUGCUAGCCUCAGAGGUGCCAGCACCUCCUCAGCCCCCGCGCCGUCCAUGCUGCUCCGGGAGGCGGCGGCGGGCAAGGACAACAGAGGAUUGAGCAUCA
B12: chr7:151048522:151048523:+_ENSG00000013374_ENST00000566856|hu_mus|hu_hu_hu_mus_True|88_108 (ssRNA)
RNA: GGGAGUUCUACAGUCCGACGAUCCUGCUUCUUAUUUAUUACGAUCUUGAUAUAAUUUUCUUGAAAUCCGAAAGUUUCAGCUAUUUGACACCUCAGGUCUCUACCAGUGACAUGCAAGCGGGUCUCCAACAAGCUUUUCUUAUCCAACAGAGGAUUGAGCAUCA
B13: chr3:37096630:37096631:-_ENSG00000093167_ENST00000421276|perfect_dup|motif|central (ssRNA)
RNA: GGGAGUUCUACAGUCCGACGAUCUUGCUCCAAGGUAGUUAUAUCCUGUUCUGCUUUUGAAAGCUUAAAUUUGUAUUCGCGGAUUUGUCUAUUGGCAUCUCUCUGCAUUUCGAUGAACUGCAAGUCUGAGCCAUUCUGCAGUCCCAACAGAGGAUUGAGCAUCA
B14: chr12:32445735:32445736:+_ENSMUSG00000035933_ENSMUST00000036862|mus_hu|FALSE|FALSE (ssRNA)
RNA: GGGAGUUCUACAGUCCGACGAUCUCGGGCUCUUGCAAUAAAAAGUAGAUCAUUUUCUAUCACUUCUAUUCCAGAAAGAUCUAUUCCUUGAGAAAGAUAAUCAAGUUCAUUGAGACUCUGAGCAGCUUUUGUUAUCUCUCUACUCAACAGAGGAUUGAGCAUCA
B15: chr22:32879901:32879902:+_ENSG00000100225_ENST00000397426|hu_mus|hu_hu_hu_mus_False|8_38 (ssRNA)
RNA: GGGAGUUCUACAGUCCGACGAUCCUCUUCCAUACUCAUGGCAUCCUGAAUUGACUCAGCUUCAACAUUUUGACUAGGCCCUUCCAUACUGUCAUCAUUCCAAACACCAAAUGGGGUGGCCUGUCCUUGGAAUGAAUCAGUCCCCAACAGAGGAUUGAGCAUCA
B16: chr6:31458560:31458561:+_ENSMUSG00000025609_ENSMUST00000026699|mus_hu|motif|central (ssRNA)
RNA: GGGAGUUCUACAGUCCGACGAUCUAAACGGGAGCCCUGGUUCUGCAGAGCUCUUCUGGACGAAAGAGUCAUUUUCUCCGGAAAUUGCUAUUAAGAUAUUAUUCACUACUAGAUCCCUCCUGCUGGUCACUUUUAGAAUGGCUCCAACAGAGGAUUGAGCAUCA
B17: chr3:150289932:150289933:+_ENSG00000144895_ENST00000460851|hu_hu|hu_hu_hu_mus_False|8_108 (ssRNA)
RNA: GGGAGUUCUACAGUCCGACGAUCCUUGUAGUUUUUCACAUCCCAUACUUCCAUUUGUCCUCGAAGAUUUCCAAAUCCAGCCAGCACUAAUAUAUGUCCAUGAGGGCUAUAGAAGGCUGCGUUGCGAGGACCAGUUCCAAAGUCCAACAGAGGAUUGAGCAUCA
B18: chr10:121602103:121602104:-_ENSG00000197771_ENST00000369077|hu_mus|FALSE|FALSE (ssRNA)
RNA: GGGAGUUCUACAGUCCGACGAUCGAGGAAUCCAAGCAGCUCUGCUCUGACUGGAGACAACUCAGACAUGAAAUUGGACACAAACUGACAGCUUCUGCUCUCCUCCUUGUUAAGGCAAGUGGGUAACAACGGAUUGAUGUGCUGCAACAGAGGAUUGAGCAUCA
B19: chr4:95690885:95690886:+_ENSMUSG00000028572_ENSMUST00000156910|mus_mus|mus_mus_mus_hu_False|38_58 (ssRNA)
RNA: GGGAGUUCUACAGUCCGACGAUCUUUAGAAAAUGUUAAAUACCAUGCUAAAAUAUUUUCAAAGGCUUAUUUUAUUUUACUAAAAGACACAGGCAAGCAGACACCAUAAGAAUAUAUGAAAAUGAAACUCAACAAUAUAACUGUCAACAGAGGAUUGAGCAUCA
B20: chr22:42032659:42032660:+_ENSG00000196419_ENST00000405878|hu_mus|FALSE|FALSE (ssRNA)
RNA: GGGAGUUCUACAGUCCGACGAUCGUCUUCAUUGGUGAACAGCAUGAUCCUCUUGUGACUCAUCUUGAGCUGGACGUCGCUGAAGAGGUUGGCACAGACCCAGAGCACUUCACUCAAAGAGUAGUCAGACCCAUGGCCAACCGUCAACAGAGGAUUGAGCAUCA
B21: chrX:98862621:98862622:+_ENSMUSG00000034160_ENSMUST00000044475|mus_hu|mus_mus_mus_hu_False|68_78 (ssRNA)
RNA: GGGAGUUCUACAGUCCGACGAUCCUGCAUCUCCUUUAGAGUGUUUCCCAUAUUAGAAUAAGCAUCAGCAAAUGUAGGACUGAUUCGAAUAGCCUCCUUAUAAUGCAUCAGAGCUUCCUGCAGUUUUCCCUGCUGCUGCAGUACCAACAGAGGAUUGAGCAUCA
B22: chr2:24646365:24646366:-_ENSMUSG00000036893_ENSMUST00000102938|mus_mus|FALSE|FALSE (ssRNA)
RNA: GGGAGUUCUACAGUCCGACGAUCUUAUUGAUUUCAUUGAAAACAGAACAAGAAAUGGUCUGAGCCAAAAGACUGCUCAUAAAACUGUCAAAAAACAUUUUAACAGAAAAAAAUAAACAUGACUGCAUUAUGAAUGUUUUAGAACAACAGAGGAUUGAGCAUCA

This assay has as its target T1, UNK ZnF1-3. Put plainly: nsRBNS (natural sequence RNA bind-n-seq); RBNS binding buffer (assumed for nsRBNS): 25 mM Tris pH 7.5, 150 mM KCl, 3 mM MgCl2, 0.01% Triton X-100, 500 ug/ml BSA, 20 U/ml SUPERase-In, 4 C; UNK is unkempt and MSI1 is Musashi-1; names of the RNAs are library labels; protein concentration not given here; high values mean tight binding.
Turning to B1, the binding signal was found to be 0.902 enrichment R.
Then B2, with 1.29 enrichment R; and B3, with 0.786 enrichment R.
Then B4, with 0.639 enrichment R; and B5, with 1.42 enrichment R; and B6, with 1.86 enrichment R.
Then B7, with 0.689 enrichment R.
As to B8, the binding signal was 0.958 enrichment R.
Then B9, with 0.639 enrichment R.
Then B10, with 1.7 enrichment R; and B11, with 0.124 enrichment R; and B12, with 1.01 enrichment R.
For B13, the binding signal came to 0.553 enrichment R.
Then B14, with 0.798 enrichment R; and B15, with 1.04 enrichment R; and B16, with 0.68 enrichment R.
As for B17, the binding signal came to 1.01 enrichment R.
B18 displayed a binding signal of 1.47 enrichment R.
Then B19, with 2.48 enrichment R; and B20, with 1.1 enrichment R.
B21: the binding signal was 1.19 enrichment R.
Then B22, with 0.566 enrichment R.
